Results: PMC6097439 (BMC Biology, 2018)
Positions count from the first letter of the chain named. These are yes or no findings as the source states them, for the method shown. Some binding calls cover weakened binding; strength is not graded here. Each block holds one molecule with its values, some of them ahead of it.

The chains behind the UniProt entries cited, without tags or fusion partners. Where a name states a change or a piece, a line headed by the entry shows the natural chain unless it says otherwise. Residues count along the entry.
UniProt P06756: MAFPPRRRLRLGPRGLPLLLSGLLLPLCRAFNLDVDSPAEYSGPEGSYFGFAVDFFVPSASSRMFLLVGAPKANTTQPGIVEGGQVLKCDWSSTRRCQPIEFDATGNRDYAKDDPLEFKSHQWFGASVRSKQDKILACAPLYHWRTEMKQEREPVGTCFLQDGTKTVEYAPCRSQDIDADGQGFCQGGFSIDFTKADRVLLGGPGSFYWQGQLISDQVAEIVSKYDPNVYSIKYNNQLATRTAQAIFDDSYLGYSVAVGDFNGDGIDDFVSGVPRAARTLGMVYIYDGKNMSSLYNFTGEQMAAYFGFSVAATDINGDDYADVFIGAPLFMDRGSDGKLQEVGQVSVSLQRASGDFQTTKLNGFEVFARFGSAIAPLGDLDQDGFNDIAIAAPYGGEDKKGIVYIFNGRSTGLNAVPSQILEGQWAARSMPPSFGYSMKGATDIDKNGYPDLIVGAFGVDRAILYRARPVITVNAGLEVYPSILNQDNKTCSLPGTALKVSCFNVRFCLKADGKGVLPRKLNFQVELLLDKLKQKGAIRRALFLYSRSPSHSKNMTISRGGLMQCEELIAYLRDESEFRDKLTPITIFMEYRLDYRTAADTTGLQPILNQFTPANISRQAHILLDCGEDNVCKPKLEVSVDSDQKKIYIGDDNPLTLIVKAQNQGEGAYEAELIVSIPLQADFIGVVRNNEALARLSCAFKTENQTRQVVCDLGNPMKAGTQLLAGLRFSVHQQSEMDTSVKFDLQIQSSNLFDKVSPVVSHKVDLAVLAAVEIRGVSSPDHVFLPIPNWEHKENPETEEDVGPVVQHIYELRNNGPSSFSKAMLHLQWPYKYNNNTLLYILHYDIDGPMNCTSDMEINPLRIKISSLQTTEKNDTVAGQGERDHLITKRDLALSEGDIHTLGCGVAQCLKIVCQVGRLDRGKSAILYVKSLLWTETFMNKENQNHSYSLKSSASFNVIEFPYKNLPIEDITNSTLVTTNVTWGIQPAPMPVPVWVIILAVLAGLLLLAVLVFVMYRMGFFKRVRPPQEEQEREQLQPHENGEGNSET
UniProt P05106: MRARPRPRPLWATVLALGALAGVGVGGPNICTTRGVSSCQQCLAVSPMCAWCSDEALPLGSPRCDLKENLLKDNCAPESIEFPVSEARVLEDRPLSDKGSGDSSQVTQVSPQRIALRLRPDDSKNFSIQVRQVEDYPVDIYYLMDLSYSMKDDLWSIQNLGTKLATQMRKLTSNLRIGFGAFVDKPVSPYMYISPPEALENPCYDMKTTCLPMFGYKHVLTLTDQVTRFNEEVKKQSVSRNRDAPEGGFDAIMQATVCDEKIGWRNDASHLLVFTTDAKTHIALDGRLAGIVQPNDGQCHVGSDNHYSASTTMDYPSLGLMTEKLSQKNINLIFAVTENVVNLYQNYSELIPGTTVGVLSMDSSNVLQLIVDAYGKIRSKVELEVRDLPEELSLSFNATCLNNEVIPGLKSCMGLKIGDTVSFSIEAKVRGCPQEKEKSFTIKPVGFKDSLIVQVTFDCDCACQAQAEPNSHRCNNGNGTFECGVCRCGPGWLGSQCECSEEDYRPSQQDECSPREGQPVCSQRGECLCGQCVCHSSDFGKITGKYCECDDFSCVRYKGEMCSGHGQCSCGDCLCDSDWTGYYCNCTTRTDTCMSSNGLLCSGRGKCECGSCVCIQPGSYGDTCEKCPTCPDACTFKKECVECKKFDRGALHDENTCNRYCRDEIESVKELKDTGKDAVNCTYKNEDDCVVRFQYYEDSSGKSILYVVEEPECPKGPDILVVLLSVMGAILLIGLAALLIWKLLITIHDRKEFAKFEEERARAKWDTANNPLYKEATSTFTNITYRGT
UniProt Q02763: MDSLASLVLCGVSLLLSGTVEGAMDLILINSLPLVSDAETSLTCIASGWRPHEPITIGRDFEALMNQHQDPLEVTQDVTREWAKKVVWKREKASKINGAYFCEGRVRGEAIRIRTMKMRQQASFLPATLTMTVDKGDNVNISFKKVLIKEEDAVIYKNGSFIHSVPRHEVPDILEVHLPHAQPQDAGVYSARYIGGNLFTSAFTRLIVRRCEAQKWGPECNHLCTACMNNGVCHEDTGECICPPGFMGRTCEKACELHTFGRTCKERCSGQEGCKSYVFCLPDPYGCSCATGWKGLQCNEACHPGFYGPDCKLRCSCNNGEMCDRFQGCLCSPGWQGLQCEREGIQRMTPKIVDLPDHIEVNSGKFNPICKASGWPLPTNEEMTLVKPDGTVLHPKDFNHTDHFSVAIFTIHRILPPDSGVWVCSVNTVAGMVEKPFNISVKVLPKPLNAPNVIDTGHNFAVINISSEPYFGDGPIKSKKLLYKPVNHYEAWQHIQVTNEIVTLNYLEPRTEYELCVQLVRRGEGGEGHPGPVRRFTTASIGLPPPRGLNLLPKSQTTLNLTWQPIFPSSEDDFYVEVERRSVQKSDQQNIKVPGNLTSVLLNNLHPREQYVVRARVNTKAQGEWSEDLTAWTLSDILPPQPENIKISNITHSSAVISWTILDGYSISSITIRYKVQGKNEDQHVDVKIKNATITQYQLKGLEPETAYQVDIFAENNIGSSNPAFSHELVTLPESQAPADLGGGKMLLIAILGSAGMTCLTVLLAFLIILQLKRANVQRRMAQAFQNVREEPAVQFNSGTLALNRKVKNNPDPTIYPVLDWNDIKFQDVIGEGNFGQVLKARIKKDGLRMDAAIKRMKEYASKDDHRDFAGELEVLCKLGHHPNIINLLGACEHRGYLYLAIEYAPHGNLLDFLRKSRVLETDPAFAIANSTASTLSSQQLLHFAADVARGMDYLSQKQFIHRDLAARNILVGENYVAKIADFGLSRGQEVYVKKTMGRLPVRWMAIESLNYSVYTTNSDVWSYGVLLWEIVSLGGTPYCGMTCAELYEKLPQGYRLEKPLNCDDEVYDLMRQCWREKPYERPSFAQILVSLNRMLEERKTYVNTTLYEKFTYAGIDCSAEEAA
Tie2 expressed on TIME cells (human (endogenous in TIME cells)): residues 23-1124 of Q02763
UniProt P13612: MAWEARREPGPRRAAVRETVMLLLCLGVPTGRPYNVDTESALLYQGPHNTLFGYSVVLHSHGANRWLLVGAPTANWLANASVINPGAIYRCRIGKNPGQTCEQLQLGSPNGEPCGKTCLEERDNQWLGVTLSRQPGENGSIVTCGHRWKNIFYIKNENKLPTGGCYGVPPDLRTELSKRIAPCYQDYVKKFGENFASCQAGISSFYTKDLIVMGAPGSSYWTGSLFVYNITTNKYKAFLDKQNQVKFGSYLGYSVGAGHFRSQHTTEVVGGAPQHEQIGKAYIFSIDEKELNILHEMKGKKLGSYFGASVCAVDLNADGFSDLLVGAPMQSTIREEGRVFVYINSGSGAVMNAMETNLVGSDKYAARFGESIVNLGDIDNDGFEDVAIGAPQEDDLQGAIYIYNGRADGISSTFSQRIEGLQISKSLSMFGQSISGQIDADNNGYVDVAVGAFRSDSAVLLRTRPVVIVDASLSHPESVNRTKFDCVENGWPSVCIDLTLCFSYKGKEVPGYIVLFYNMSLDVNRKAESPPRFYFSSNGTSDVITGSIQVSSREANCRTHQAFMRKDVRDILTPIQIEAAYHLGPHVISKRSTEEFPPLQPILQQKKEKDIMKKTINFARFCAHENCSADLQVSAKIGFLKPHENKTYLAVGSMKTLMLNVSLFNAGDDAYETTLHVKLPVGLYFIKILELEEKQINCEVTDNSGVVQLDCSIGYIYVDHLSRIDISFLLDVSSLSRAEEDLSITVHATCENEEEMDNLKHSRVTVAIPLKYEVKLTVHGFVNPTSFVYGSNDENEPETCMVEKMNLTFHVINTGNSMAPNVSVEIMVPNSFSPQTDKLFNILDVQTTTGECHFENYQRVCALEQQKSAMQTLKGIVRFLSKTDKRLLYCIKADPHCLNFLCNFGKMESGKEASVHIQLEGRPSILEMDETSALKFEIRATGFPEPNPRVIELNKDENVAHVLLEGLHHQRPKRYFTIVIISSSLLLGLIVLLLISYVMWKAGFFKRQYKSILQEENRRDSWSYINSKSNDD
UniProt P26010: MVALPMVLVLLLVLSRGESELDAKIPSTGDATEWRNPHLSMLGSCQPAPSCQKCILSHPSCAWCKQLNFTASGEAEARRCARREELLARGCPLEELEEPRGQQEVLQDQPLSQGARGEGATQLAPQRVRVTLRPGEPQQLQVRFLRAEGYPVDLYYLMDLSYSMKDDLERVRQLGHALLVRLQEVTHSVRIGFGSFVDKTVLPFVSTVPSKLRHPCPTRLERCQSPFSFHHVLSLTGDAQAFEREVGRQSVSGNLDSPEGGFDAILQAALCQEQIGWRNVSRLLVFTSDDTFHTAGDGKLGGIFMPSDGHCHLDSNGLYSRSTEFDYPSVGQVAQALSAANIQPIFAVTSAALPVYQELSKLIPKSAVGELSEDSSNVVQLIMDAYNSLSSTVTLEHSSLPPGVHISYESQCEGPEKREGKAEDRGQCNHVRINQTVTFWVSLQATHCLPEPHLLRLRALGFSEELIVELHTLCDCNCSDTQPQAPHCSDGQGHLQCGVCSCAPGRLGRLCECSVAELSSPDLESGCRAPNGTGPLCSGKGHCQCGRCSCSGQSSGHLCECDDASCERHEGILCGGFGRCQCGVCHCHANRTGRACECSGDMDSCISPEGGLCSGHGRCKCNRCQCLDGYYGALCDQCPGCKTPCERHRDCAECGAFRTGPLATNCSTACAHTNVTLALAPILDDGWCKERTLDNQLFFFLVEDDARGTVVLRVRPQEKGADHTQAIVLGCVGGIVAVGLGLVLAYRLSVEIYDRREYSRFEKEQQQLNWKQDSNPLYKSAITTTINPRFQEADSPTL

Key:
[1] = biological target: Ang2-BDBC35, yeast-displayed (UniProt O15123); assay: flow cytometry on cells; yeast-displayed Ang2-BD clones; 20 nM soluble Tie2-Fc, 1 h room temperature; FITC anti-human Fc detection; normalized to display level and to Ang2-BDWT; only the binder purified
[2] = biological target: Ang2-BDBC6, yeast-displayed (UniProt O15123); assay: as above
[3] = biological target: Ang2-BDWT, yeast-displayed (UniProt O15123); assay: as above
[4] = biological target: Ang2-BDBC10, yeast-displayed (UniProt O15123); assay: as above
[5] = biological target: Ang2-BDBC14, yeast-displayed (UniProt O15123); assay: as above
[6] = biological target: Ang2-BDBC5, yeast-displayed (UniProt O15123); assay: as above
[7] = biological target: Ang2-BDBC35, yeast-displayed (UniProt O15123); assay: flow cytometry on cells; yeast-displayed Ang2-BD clones; 50 nM solubilized integrins, 1 h room temperature; labelled anti-α-subunit antibodies; normalized to display level; only the binder purified
[8] = biological target: Ang2-BDBC6, yeast-displayed (UniProt O15123); assay: as above
[9] = biological target: Ang2-BDBC10, yeast-displayed (UniProt O15123); assay: as above
[10] = biological target: Ang2-BDBC14, yeast-displayed (UniProt O15123); assay: as above
[11] = biological target: Ang2-BDBC5, yeast-displayed (UniProt O15123); assay: as above
[12] = biological target: Ang2-BDWT, yeast-displayed (UniProt O15123); assay: flow cytometry on cells; yeast-displayed Ang2-BD; 10 nM soluble αvβ3 integrin in IBB (20 mM Tris-HCl pH 7.5, 100 mM NaCl, 1 mM MnCl2, 2 mM CaCl2, 1% BSA), 1 h room temperature; FITC anti-αv detection, anti-cMyc for display; only the binder purified
[13] = biological target: Ang2-BDWT, yeast-displayed (UniProt O15123); assay: flow cytometry on cells; yeast-displayed Ang2-BD clones; 50 nM solubilized integrins, 1 h room temperature; labelled anti-α-subunit antibodies; normalized to display level; only the binder purified
[14] = biological target: T1, αvβ3 integrin expressed on TIME cells (human (endogenous in TIME cells)) (UniProt P06756+P05106); assay: flow cytometry on cells; competitive binding on TIME cells: 1 μM Ang2-BD variant alone or with 1000 ng/ml FL-Ang1 and/or 10 μM cRGD; anti-FLAG detection; only the binder purified
[15] = biological target: Tie2 expressed on TIME cells (human (endogenous in TIME cells)) (UniProt Q02763); assay: as above
[16] = biological target: T1, αvβ3 integrin expressed on TIME cells (human (endogenous in TIME cells)); assay: flow cytometry on cells; 10^5 TIME cells with different concentrations of Ang2-BD variants in PBSA, 2 h at 4 °C; anti-FLAG detection; only the binder purified
[17] = biological target: Tie2 expressed on TIME cells (human (endogenous in TIME cells)) (UniProt Q02763); assay: as above
[18] = biological target: recombinant α4β7 integrin (human) (UniProt P13612+P26010); assay: SPR; integrins other than αvβ3 immobilized by amine coupling, 1 μM of the Ang2-BD variants as analyte, 25 °C, IBB; both purified

binding [1]: binds
binding [2]: binds
binding [3]: binds
binding [4]: binds
binding [5]: binds
binding [6]: binds
Molecule: Tie2-Fc (from UniProt Q02763 23-748) (Fc fusion)

binding [12]: no binding (tested: 10 nM)
binding [7]: binds
binding [8]: binds
binding [13]: no binding (tested: 50 nM)
binding [9]: binds
binding [10]: binds
binding [11]: binds
Molecule: recombinant αvβ3 integrin (from UniProt P06756 31-992; P05106 27-718) (complex)

binding [7]: binds weakly
binding [8]: binds weakly
binding [9]: binds weakly
binding [10]: binds weakly
binding [11]: binds weakly
Molecule: recombinant αvβ5 integrin (from UniProt P06756 31-992; P18084 24-719) (complex)

binding [14]: binds
binding [15]: binds
binding [16]: binds
binding [17]: binds
binding [18]: no binding (tested: 1 μM)
B2: Ang2-BDBC10, soluble protein (designed binder)
chain: FRDCAEVFKSGHTTNGIYTLYPGRGDNPDIKAYCDMEAGGGGWTIIQRREDGSVDFQRTWKEYKVGFGNPSGEYWLGNEFVSQLTNQQRYVLKIHLKDWEGNEAYSLYEHFYLSSEELNYRIHLKGLTGTAGKISSISQPGNDFSTKDGDNDKCICKCSQMLTGGWWFDACGPSNLNGMYYPQRQNTNKFNGIKWYYWKGSGYSLKATTMMIRPADF
notes: also called Ang2-BD bi-specific variant; source: Pichia (Multi-Copy Pichia Expression Kit), purified from yeast culture supernatant (HisTrap, Superdex 200)

Further lines, the molecule ahead of its results:

Molecule: recombinant α4β7 integrin (from UniProt P13612 35-977; P26010 20-723) (complex)
binding [7]: no binding (tested: 50 nM)
binding [8]: no binding (tested: 50 nM)
binding [9]: no binding (tested: 50 nM)
binding [10]: no binding (tested: 50 nM)
binding [11]: no binding (tested: 50 nM)

B1: Ang2-BDBC6, soluble protein (designed binder)
chain: B2 chain with Y21R, P22E, P28V
notes: as for B2
binding [14]: binds
binding [15]: binds
binding [16]: binds
binding [17]: binds
binding [18]: no binding (tested: 1 μM)

B3: Ang2-BDBC5, soluble protein (designed binder)
chain: B2 chain with Y21N, P22T, G23C, N27C, P28L, D29P
notes: as for B2
binding [14]: binds
binding [15]: binds
binding [16]: binds
binding [17]: binds
binding [18]: no binding (tested: 1 μM)

B4: Ang2-BDWT, soluble protein (domain or fragment, UniProt O15123 281-496, looked up)
chain: FRDCAEVFKSGHTTNGIYTLTFPNSTEEIKAYCDMEAGGGGWTIIQRREDGSVDFQRTWKEYKVGFGNPSGEYWLGNEFVSQLTNQQRYVLKIHLKDWEGNEAYSLYEHFYLSSEELNYRIHLKGLTGTAGKISSISQPGNDFSTKDGDNDKCICKCSQMLTGGWWFDACGPSNLNGMYYPQRQNTNKFNGIKWYYWKGSGYSLKATTMMIRPADF
notes: The limits 281-496 are stated for the Ang2-BDWT gene; also called wild-type Ang2 BD; mono-specific Ang2-BDWT; source: Pichia (Multi-Copy Pichia Expression Kit), purified from yeast culture supernatant (HisTrap, Superdex 200)
binding [15]: binds
